Experimental findings from ChEMBL document CHEMBL1201862, “PubChem BioAssay data set” (2004) are described below.

Structures are written as SMILES.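 Results reflect a 48-hour exposure of cells in 96-well plates to compound at five concentrations. Abbreviation: GI50, concentration required for 50% inhibition of growth.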 The source made the active and inactive calls. No stated cut-off is given here; in the data, active = GI50 up to about 1.1 µM and inactive = higher.

The subject of this test is NCI-H322M. The experiment in a line: growth of human tumour cells (NCI), 48 h.
Take `CC1=NN(C(=O)c2ccc(Cl)cc2)C(=O)/C1=C/c1ccc(O)cc1`: the GI50 is inactive: > 100 µM.
For `COc1cc(C(=O)Nc2nnc(S(N)(=O)=O)s2)cc(OC)c1OC`, the GI50 was inactive: > 100 µM.
For `OCCCCCNc1cc(O)nc(O)n1`, the GI50 was inactive: > 100 µM.
As to `c1coc(CNc2[nH]cnc3nncc2-3)c1`, the GI50 is inactive: > 100 µM.
As for `O=S(=O)(/C=C/C=C/S(=O)(=O)c1ccccc1)c1ccccc1`, the GI50 is inactive: 15.3 µM.
For `CN(C)CCC[N+]1=Nc2cccc3cccc(c23)N1`, the GI50 was inactive: > 100 µM.
In the case of `C=CC[C@H]1[C@H](O[Si](C)(C)C(C)(C)C)C=CC(=O)[C@@H]1CC(=O)OCC` it was inactive: 14.9 µM.
`CCOC(=O)NC(=O)c1cn(C(CC)COC(=O)NCCCCCCNC(=O)OCC(CC)n2cc(C(=O)NC(=O)OCC)c(=O)[nH]c2=O)c(=O)[nH]c1=O` (stereo not drawn): the GI50 was inactive: > 100 µM.
As to `NC(=S)N/N=C/c1ccc(OC(=O)COc2ccccc2Cl)cn1`, the GI50 was inactive: 39.4 µM.
Take `O=C(O)C12C3CCC(CC3)C1(C(=O)O)C1CCC2C1` (stereo not drawn): the GI50 is inactive: > 100 µM.
With `CCOC(=O)CCC(NC(=O)c1ccc(NC(OC)c2nc3cc(C(F)(F)F)ccc3nc2-c2ccccc2)cc1)C(=O)OCC` (stereo not drawn), the GI50 is inactive: 15.4 µM.
In the case of `Cc1c2c(n3c(nc4ccccc43)c1C#N)SCC2` it was inactive: > 10 µM; in that of `O=C(O)c1ccc(Nc2nc3ccc(C(F)(F)F)cc3nc2-c2ccccc2)cc1`, inactive: 41.3 µM; in that of `CC1=NN(C(=O)CC(=O)Nc2ccc(Cl)cc2)C(=O)C1/N=N\c1ccc(S(=O)(=O)c2ccc(/N=N/C3C(=O)N(C(=O)CC(=O)Nc4ccc(Cl)cc4)N=C3C)cc2)cc1` (stereo not drawn), inactive: > 100 µM.
For the compound `CCCCCCCCCC1CC(=O)NCC(=O)NC(C(C)C)C(=O)NC(CC(C)C)C(=O)NC(C)C(=O)NC(C(C)C)C(=O)O1` (stereo not drawn), the GI50 was inactive: 14.8 µM.
Regarding `Cc1ccc(O)c(C2=NNC(c3cccc(Cl)c3)C2)c1` (stereo not drawn), the GI50 was inactive: 67 µM.
The figure for `CN(C(=O)C12C3C4C1C1C2C3C41I)C(C)(C)C` (stereo not drawn) is inactive: > 100 µM; for `c1csc(-c2cc(-c3ccsc3)cs2)c1` it is inactive: > 100 µM.
In the case of `CCOC(=O)c1c(C)n(-c2ccc(Cl)cc2)c2c1cc(O)c1[nH]c3c(c12)CCCC3` it was inactive: 63 µM.
As to `N#CCCC[Si]12OCCN(CCO1)CCO2`, the GI50 was inactive: > 100 µM.
For `O=C1C(Nc2ccc(S(=O)(=O)Nc3cnc4ccccc4n3)cc2)=C/C(=N\c2ccc(S(=O)(=O)Nc3cnc4ccccc4n3)cc2)c2ccccc21`, the GI50 is inactive: 17.5 µM.
With `CN1CCN(c2ccc3nc(C4=C(O)C(=O)c5c(nc(CO)n5C)C4=O)[nH]c3n2)CC1`, the GI50 is inactive: > 100 µM.
Turning to `C/C(=C\CO)CC/C=C(\C)CNc1c(F)c(F)c(F)c(F)c1F`, the GI50 is inactive: 24.6 µM.
For the compound `c1ccc(CSc2nc(N3CCCCC3)c3cn[nH]c3n2)cc1`, the GI50 was inactive: 29.7 µM.
With `CC1CCC(C(C)C)C(OC(=O)NCn2cc(-c3ccccc3)nn2)C1` (stereo not drawn), the GI50 is inactive: > 100 µM.
The figure for `[O-][S+]1C(=c2ccc(=C3Sc4ccccc4S3)cc2)Sc2ccccc21` (stereo not drawn) is inactive: 17.7 µM.
As for `CC1CC[C@@H](C(C)C)[C@H](Oc2nnc(C3OC(CO)C(O)C3O)o2)C1` (stereo partly drawn), the GI50 was inactive: > 100 µM.
Consider `C[C@]12CCC3[C@@H](CC[C@@H]4c5nonc5CC[C@]34C)C1CCC(=O)N2` (stereo partly drawn), for which the GI50 was inactive: > 100 µM.
With `COc1cc2c(cc1OC)[C@H]1CN3CCC[C@H]3C=C1c1ccc(OC)c(O)c1-2`, the GI50 is active: 0.000518 µM.
Consider `N#Cc1ccccc1Nc1ccccc1S`, for which the GI50 was inactive: 63 µM.
On to `CC(=O)OCC1OC(n2c(C)cc(C)c(C#N)c2=S)C(OC(C)=O)C(OC(C)=O)C1OC(C)=O` (stereo not drawn), for which the GI50 is inactive: > 100 µM.
For `C=C/C(C)=C\CC1[C@](C)(O)CC[C@H]2C(C)(C)C(O)CC[C@]12C` (stereo partly drawn), the GI50 was inactive: > 100 µM.
In the case of `COc1ccc2oc(C(=O)N3CC(CCl)c4ccc([N+](=O)[O-])cc43)cc2c1` (stereo not drawn), the GI50 was inactive: > 100 µM.
In the case of `Brc1ccc(/N=N/c2ccc3ccccc3n2)cc1` it was inactive: 18.2 µM; in that of `Cc1cnc(-c2ccccc2)o1`, inactive: > 100 µM; in that of `CCCC/C=C1\CCC(CN2CCCC2)C1=O` (stereo not drawn), inactive: 17.7 µM.
With `NNC(=S)N/N=C/C(Cl)=C(\Cl)C(=O)O`, the GI50 is inactive: > 100 µM.
`Fc1cc(C2=C[C@H](c3ccc4c(c3)OCO4)NC(=S)N2)c(Cl)cc1Cl`: the GI50 is inactive: 42.3 µM.
`CCN1CC(C)Cn2c(=O)[nH]c3cc(Br)cc1c32` (stereo not drawn): the GI50 was inactive: 48.9 µM.
The figure for `O=C(Nc1ccc(Cl)cc1)c1cc2c(cc1Cl)SC(NNCCO)=NS2(=O)=O` is inactive: > 100 µM; for `C=C(C)C1=CCC[C@]2(C1)N=C(OC)[C@@H](C(C)C)N=C2OC` it is inactive: > 100 µM; for `N[C@H](C(=O)O)[C@H](Cl)CC(=O)O` it is inactive: > 100 µM.
As for `Cc1cc(=O)oc2cc(OC(=O)Nc3ccccc3)ccc12`, the GI50 was inactive: > 100 µM.
In the case of `C=C(CN(CC)CC)C1(c2ccccc2)CC2(CCCC2)C(=O)O1` (stereo not drawn), the GI50 was inactive: > 100 µM.
Turning to `O=c1c2ccccc2nc2n1C(c1ccc([N+](=O)[O-])cc1)C2(c1ccccc1)c1ccccc1` (stereo not drawn), the GI50 is inactive: > 100 µM.
Turning to `CCOC(=O)C(=O)/C(=C/NC(=S)c1ccncc1)C(=O)OCC`, the GI50 is inactive: > 100 µM.
Consider `CC(C)[Si](Oc1cc2c3c(ccc2c(O)c1[C@@H](C)CO[Si](C)(C)C(C)(C)C)C(C)(C)CCC3)(C(C)C)C(C)C`, for which the GI50 was inactive: > 100 µM.
`CC(SC(=S)N1CCOCC1)c1cc2oc(=O)n(C)c2cc1Cl` (stereo not drawn): the GI50 is inactive: > 100 µM.
As to `CCCCCCCCCCCCCCCC(=O)ON1C(=S)NC(C)(c2ccccc2)C1=S` (stereo not drawn), the GI50 is inactive: > 100 µM.
As for `O=C(NC(Cc1c[nH]c2ccccc12)C(=O)Nc1ccc(Br)cc1)OCc1ccccc1` (stereo not drawn), the GI50 is inactive: 16 µM.
In the case of `COc1ccc(-n2c(=O)c3nc[nH]c3n(-c3ccc(OC)cc3)c2=S)cc1`, the GI50 was inactive: > 100 µM.
Regarding `O=C1c2ccccc2C(=O)c2sc(Nc3ccc([N+](=O)[O-])cc3)nc21`, the GI50 is inactive: 13.5 µM.
For `O=C1OC2(OC2c2ccccc2)c2ccccc21` (stereo not drawn), the GI50 was inactive: > 100 µM.
For the compound `CCOC(=O)C(C(O)c1ccc([N+](=O)[O-])cc1)P(=O)(OCC)OCC` (stereo not drawn), the GI50 was inactive: > 100 µM.
As for `C[Si](C)(C)OC1(C#N)C2C3CC4C2C(=O)C2C4C3C21` (stereo not drawn), the GI50 is inactive: > 100 µM.
The figure for `CC1=NN(c2ccc(S(=O)(=O)O)cc2)C2(C1)C(Cl)C(=O)N2c1nc2ccccc2s1` (stereo not drawn) is inactive: > 100 µM; for `CCOC(=O)c1[nH]c(CN(C)Cc2[nH]c(C(=O)OCC)c(C)c2C(=O)OCc2ccccc2)c(C(=O)OCc2ccccc2)c1C` it is inactive: 26.1 µM; for `COC(=O)c1ccc2c(c1)CC1(C2)Cc2ccc3c(c2C1)CCC3` (stereo not drawn) it is inactive: 58.5 µM.
In the case of `OC1CN2Cc3cc4c(cc3[C@]13C=C[C@@H](O)CC23)OCO4` (stereo partly drawn), the GI50 is inactive: 17.3 µM.
On to `Cc1cc(C)c2c(n1)S(=O)(=O)N(CCCN1CCN(c3cccc(Cl)c3)CC1)C(C(=O)c1ccccc1)=C2O`, for which the GI50 is inactive: 29.6 µM.
On to `O=C(O)Cn1ncn(NC(=O)Cc2ccccc2)c1=S`, for which the GI50 was inactive: > 10 µM.
`OC1(c2ccccc2)c2ccccc2N=C2NCCN21` (stereo not drawn): the GI50 is inactive: > 100 µM.
Consider `COc1cccc(C2c3cc4c(cc3OC(C)(N3CCCC3)C2C)OCO4)c1` (stereo not drawn), for which the GI50 was inactive: 25.5 µM.
The figure for `COc1ccc(C2CC(=O)CC(c3ccc(OC)cc3)C23C(=O)NC(=O)NC3=O)cc1` (stereo not drawn) is inactive: 21.6 µM.
`O=C1Oc2cc3c(c4cccc1c24)O[C@H](c1ccccc1)[C@@H](c1ccccc1)[C@@H]3c1ccc(Cl)cc1`: the GI50 was inactive: > 100 µM.
`CC(C)(C)CN1[C@@H]2CCCC[C@H]2N(CC(C)(C)C)P1(=O)C(O)/C=C/c1ccccc1` (stereo partly drawn): the GI50 is inactive: 49.4 µM.
In the case of `CN1CCC/C1=C1/C(=O)N(c2ccccc2)N=C1c1ccc[nH]1` it was inactive: > 100 µM; in that of `CCOC(=O)C1=C(OC(OCC)C(CC)[Se]c2ccccc2)CCC1` (stereo not drawn), inactive: > 100 µM; in that of `CO/C=C/C=C(\C#N)C(=O)OC`, inactive: > 100 µM.
In the case of `CC1=C(c2nc3ccccc3s2)C(=O)OC1(C)C` it was inactive: > 100 µM.
Take `CCCCCCCCCCCCCCCc1nnc(S)[nH]1`: the GI50 was inactive: > 100 µM.
As for `O=c1cc(-c2ccccc2)[nH]c2ccc(N3CCCC3)cc12`, the GI50 is active: 0.0574 µM.
As for `COCO[C@@H]1C[C@H]2C(O)Nc3ccccc3C(=O)N2C1` (stereo partly drawn), the GI50 is inactive: > 100 µM.
The figure for `O=c1[nH]nc(Cc2ccccc2)n1/N=C/c1ccncc1` is inactive: > 100 µM; for `CC(NC(=O)c1ccc(NP(=O)(OCc2ccc([N+](=O)[O-])o2)N(C)CCCCCl)cc1)c1ccc(OCC2CCCCC2)c(C(N)=O)c1` (stereo not drawn) it is inactive: 13.2 µM.
As for `CCCCC[C@@H]1CCCC2NC(CCCCCO[Si](c3ccccc3)(c3ccccc3)C(C)(C)C)CCC21` (stereo partly drawn), the GI50 was inactive: 15.3 µM.
Regarding `CN(C(=O)/C=C/c1ccccc1)C1C2CN3CCC(O2)C13` (stereo not drawn), the GI50 is inactive: > 100 µM.
With `COC1[C@H](NC(=O)OC(C)(C)C)C(=O)N1Cc1ccccc1` (stereo partly drawn), the GI50 was inactive: > 100 µM.
Take `Cc1csc2c1-n1cccc1C2=O`: the GI50 is inactive: > 100 µM.
For `CCCCCCCCCCCCCCCCCC(=O)NCC(COP(=O)([O-])OCC[N+](C)(C)C)OC` (stereo not drawn), the GI50 is inactive: 13.4 µM.
Take `CCN(CC)CCCNC(=O)c1ccc([N+](=O)[O-])cc1O`: the GI50 is inactive: > 100 µM.
`Clc1ccc(CCN2CCN(CCCc3ccccc3)CC2)cc1Cl`: the GI50 is inactive: 18.7 µM.
Turning to `Oc1ccc(-c2nc3cc(F)ccc3s2)cc1`, the GI50 was inactive: 29.3 µM.
